This is one part of the list.

The test system of this assay is PF3D7_0420300 AP2 domain 1 (GST-tagged). The assay can be described thus: gcPBM binding intensity (ln(normalized median fluorescence intensity)); higher = stronger DNA binding. Summed up: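 GST-tagged P. falciparum DNA-binding domains produced in E. coli were incubated for 1 h on an Agilent 4 × 180k array of primer-extended double-stranded 36-bp intergenic genomic probes with negative controls. Binding intensity is the highest Masliner-normalised natural-log median intensity across replicate spots of either probe orientation, with bound protein detected by Alexa488 anti-GST antibody at 488 nm.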
“TATTATATTTATTTATGTACACATATACTTAAATAA [XGTACX_site1355]”: the “gcPBM binding intensity (ln)” value was 9.07.

Regarding “TGTAATACAGAAAAAAGTACTAAAAAGAAAAGGATT [XGTACX_site3176]”, the “gcPBM binding intensity (ln)” value was 9.57.

Regarding ACACCTATAAATTAAGTGCATTTTTTTTGATGTTAT, the “gcPBM binding intensity (ln)” value was found to be 9.28.

Regarding “TTTTTTTTTTTAATATGTACGTAAAATAAGTTTAAA [XGTACX_site6495]”, the “gcPBM binding intensity (ln)” value was determined as 8.87.

As for “ACATTCAATCTACTGTGTACATATTAAACTTTGAAA [XGTACX_site2913]”, the “gcPBM binding intensity (ln)” value was found to be 9.31.

Consider “AAAAAATATATATCACGTGGTAATATATATATATAT [XGTACX_negctrl_site252]”, for which the “gcPBM binding intensity (ln)” value was found to be 9.22.

In the case of “TACATCTGTATATAAACACACAACAAAAATGCTTAC [CACACA_site3814]”, the “gcPBM binding intensity (ln)” value was 9.44.

Turning to “AATATATAAATAGATACACACATACATACATACATA [CACACA_site4301]”, the “gcPBM binding intensity (ln)” value amounted to 9.78.

In the case of “AAATTAAATCCGCACGCACACACACCGATTAATAAA [CACACA_site9321]”, the “gcPBM binding intensity (ln)” value was 9.85.

In the case of “AATATTACGTCTGGACGTACAAATCTTTTTCGTGTC [XGTACX_site6644]”, the “gcPBM binding intensity (ln)” value is 9.05.

“AAATTATTGAAATACGCATGTGTTTTTTTTTTTTTT [TGCATGCA_site391]”: the “gcPBM binding intensity (ln)” value was 9.12.

For the sequence “TTTTACTAGATATATACACACATTATACCTATAGAT [CACACA_site7530]”, the “gcPBM binding intensity (ln)” value came out at 9.52.

With “ACATTTTTTTTTTTTTTTTTTTTCTTACATCATGCA [CACACA_negctrl_site1413]”, the “gcPBM binding intensity (ln)” value turned out to be 9.21.

Take “ATATAAAGGTTTATTAGTACACATTAGAATACTTTT [XGTACX_site4492]”: the “gcPBM binding intensity (ln)” value amounted to 9.21.

Turning to “GAAATATTTTGTTGTGCATGCGACATTAAATAAAAA [TGCATGCA_site331]”, the “gcPBM binding intensity (ln)” value stood at 8.98.

On to “CATATTAGGACAAAGTGTACATATATATATATATAT [XGTACX_site1172]”, for which the “gcPBM binding intensity (ln)” value came out at 9.27.

For the sequence “TTATGAAAAAAATACTGTACACAATATGACGAAAGT [XGTACX_site2283]”, the “gcPBM binding intensity (ln)” value came to 9.66.

“TTTTAAATAAATCATGCATGCACATATAATTATATT [TGCATGCA_site151]”: the “gcPBM binding intensity (ln)” value amounted to 9.12.

With “TATCTCATTTGGAATTGTACTAACAGATACTTGTTT [XGTACX_site2672]”, the “gcPBM binding intensity (ln)” value was 9.12.

On to “ATTCAATAATTGTTTTTTTTCTTTTTGTTTTTGTTT [GTGCAC_negctrl_site563]”, for which the “gcPBM binding intensity (ln)” value was 9.61.

Regarding “TATACGCATATTTTTACACACATATTTTTTCATATA [CACACA_site2546]”, the “gcPBM binding intensity (ln)” value stood at 9.83.

As for “TATATATAATATATATGTACATATGTATAATATTTA [XGTACX_site4400]”, the “gcPBM binding intensity (ln)” value was 9.16.

In the case of “CATATTAAAAATACATGTACATATATATTTAATATA [XGTACX_site8580]”, the “gcPBM binding intensity (ln)” value was determined as 9.08.

As for “GTTTGTAAATATTTTACACACATATTTATTTATATA [CACACA_site6632]”, the “gcPBM binding intensity (ln)” value was determined as 9.5.

Regarding “TATAAATATGTGTTTACACACAATAATGAATTAAAA [CACACA_site6555]”, the “gcPBM binding intensity (ln)” value was 9.32.

For “GTTAAAATAATATTATGTACATATATATAAAAATAT [XGTACX_site8512]”, the “gcPBM binding intensity (ln)” value is 9.25.

In the case of “AACCTCAAATACACAAGTACGTATAATAAGGAACAA [XGTACX_site4304]”, the “gcPBM binding intensity (ln)” value is 9.5.

With “ATGGAAAAATGTATATATAAAATAAATATATTATAT [CACACA_negctrl_site1712]”, the “gcPBM binding intensity (ln)” value came out at 9.26.

Take “AATATACACATTGTGAAATAACAAAAAAGGCAAAAA [CACACA_negctrl_site1014]”: the “gcPBM binding intensity (ln)” value came to 9.66.

Regarding “CCTATTTATATATACACACACATATATAAATAAATA [CACACA_site2991]”, the “gcPBM binding intensity (ln)” value was 9.61.

Consider “ATATATATTCATAATACACACATTCTGTAGCATTAT [CACACA_site2067]”, for which the “gcPBM binding intensity (ln)” value worked out at 9.51.

“ATAGTATCTGGTAGCTGTACGAATGGTAGAGAGTAG [XGTACX_site2548]”: the “gcPBM binding intensity (ln)” value stood at 9.51.

As to “TATATATATGTATGATGTACATATATGCATATATAT [XGTACX_site3399]”, the “gcPBM binding intensity (ln)” value is 9.05.

As for “TTAATTAAATATTATACACACAAAAAAATAATTTTA [CACACA_site96]”, the “gcPBM binding intensity (ln)” value came out at 9.27.

Take “AATAAAAAGATATTCTCCTTGTTCCTTTTTTTTAAA [CACACA_negctrl_site1147]”: the “gcPBM binding intensity (ln)” value was 9.17.

Take “ATTTTAACCAATTATTGTACTTGGTTATTCTTTTTT [XGTACX_site7453]”: the “gcPBM binding intensity (ln)” value is 9.51.

In the case of “AATCTATATTGACACACACACAAAAAAAAAAAAAAA [CACACA_site6739]”, the “gcPBM binding intensity (ln)” value is 9.54.

For the sequence “ATATATATATTAAAGGTGCACAAATAAATATATACA [GTGCAC_site9532]”, the “gcPBM binding intensity (ln)” value was 9.51.

In the case of “ATATTTTTTTTCTTCACACACATGAATTATATATAA [CACACA_site3216]”, the “gcPBM binding intensity (ln)” value was 9.67.

Turning to “TTAATAACAAAATAAACACACATATATAAATACACA [CACACA_site6849]”, the “gcPBM binding intensity (ln)” value was found to be 9.86.

“TTATATTTTTTTTGTAGTACATTATAGAATACACAC [XGTACX_site969]”: the “gcPBM binding intensity (ln)” value was 9.24.

Regarding “AAATGTTGAAATGATACACACATATATATATATATA [CACACA_site2517]”, the “gcPBM binding intensity (ln)” value was found to be 9.33.

On to “TAAATTCTGTTTAAAAGTACAAATAATATTGTGCCT [XGTACX_site7805]”, for which the “gcPBM binding intensity (ln)” value was 8.94.

“TTTATTAAAACAAAATGTACACACATATAATTTAAT [XGTACX_site1637]”: the “gcPBM binding intensity (ln)” value was 9.41.

With “TTAATCTTCATAAAATGTACAGAAGATTGAATATTC [XGTACX_site6213]”, the “gcPBM binding intensity (ln)” value was 8.93.

For “TGAAAGTGTATTAAAGTGCATATTATTTTATCTACC [GTGCAC_site9969]”, the “gcPBM binding intensity (ln)” value was 9.2.

With “TACAGAAATTTATATATATATATATATATATATATA [XGTACX_negctrl_site209]”, the “gcPBM binding intensity (ln)” value is 8.92.

Regarding “AAATCAAAAACGTTTACACACATTCTTATTTAAATA [CACACA_site790]”, the “gcPBM binding intensity (ln)” value is 9.41.

Consider “TGAGACATGAATGCAAGTACAAAAAGGAGAACAAAA [XGTACX_site6183]”, for which the “gcPBM binding intensity (ln)” value came to 9.41.

Consider “TACATATATTTTTTATGTACTTACTTGTGTGTTTAT [XGTACX_site5126]”, for which the “gcPBM binding intensity (ln)” value is 9.5.

Turning to “TTTTATAATTTCAAAGGATTCTTTAATATTATAAAT [CACACA_negctrl_site1812]”, the “gcPBM binding intensity (ln)” value is 8.75.

With “AAAAAAAAAAAAAAAAGTACACACTTTTGCCTACAT [XGTACX_site6583]”, the “gcPBM binding intensity (ln)” value was determined as 9.34.

For the sequence “AAATTATATATAATAAATAATTTCTTTTTCTAAAAG [CACACA_negctrl_site8]”, the “gcPBM binding intensity (ln)” value came to 8.77.

With “AATAATTGCTAAAGGTGTACAATACGTATATAAGAA [XGTACX_site4910]”, the “gcPBM binding intensity (ln)” value stood at 9.53.

Regarding “ATTATTCGTTTTAAATGTACTCATATAAACGATAAA [XGTACX_site7866]”, the “gcPBM binding intensity (ln)” value came out at 8.84.

As for “CAAAAGAAGGTAAACACACACACACCCATACAAAAA [CACACA_site3765]”, the “gcPBM binding intensity (ln)” value turned out to be 10.1.
